Measured values published in PubChem BioAssay AID504937 (National Center for Advancing Translational Sciences (NCATS), 2011).
The campaign covered roughly 340,000 compounds. About 20 (0.006%) were called active. Inconclusive results, whose numbers are uncertain, are shown with a selection of clear calls. The call rests on the fitted dose curve; in most records, active means well fitted inhibition curve with a large enough effect; inconclusive means small, poorly fitted or top-dose-only effect; inactive means no such curve, though single readings can be large or run the other way. Where the call is inconclusive, the potency comes from a doubtful curve fit.

target: Sphingomyelin phosphodiesterase (Homo sapiens) (UniProt P17405); experiment: Inhibitors of Secretory Acid Sphingomyelinase (S-ASM): qHTS; conditions: placental ASM, HMU-PC fluorogenic substrate (series up to 57.5 µM), 60 min; activity change, negative = inhibition: at the top concentration
UniProt P17405, sequence (P17405 whole entry, looked up): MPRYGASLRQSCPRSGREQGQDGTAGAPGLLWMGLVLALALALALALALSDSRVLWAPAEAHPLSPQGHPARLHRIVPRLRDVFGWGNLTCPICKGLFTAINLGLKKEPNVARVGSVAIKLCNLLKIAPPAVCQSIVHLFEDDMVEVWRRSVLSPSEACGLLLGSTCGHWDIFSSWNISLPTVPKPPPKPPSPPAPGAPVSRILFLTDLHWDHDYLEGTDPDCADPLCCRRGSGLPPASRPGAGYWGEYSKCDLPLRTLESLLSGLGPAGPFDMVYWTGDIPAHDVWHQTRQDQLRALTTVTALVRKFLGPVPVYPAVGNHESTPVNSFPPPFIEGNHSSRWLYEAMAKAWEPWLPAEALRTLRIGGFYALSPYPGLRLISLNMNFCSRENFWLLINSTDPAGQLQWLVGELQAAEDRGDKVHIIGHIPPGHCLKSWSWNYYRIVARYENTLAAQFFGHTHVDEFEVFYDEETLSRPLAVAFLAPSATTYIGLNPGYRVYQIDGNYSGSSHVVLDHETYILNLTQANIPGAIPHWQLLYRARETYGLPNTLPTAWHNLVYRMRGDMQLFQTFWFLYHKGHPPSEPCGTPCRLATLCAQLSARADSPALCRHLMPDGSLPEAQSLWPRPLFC
Excerpt: Atherosclerosis is the underlying process for cardiovascular disease and thus is a major contributor to disease burden in the population. […] Thus, selective small molecule inhibitors of S-ASM should block LDL modification and reduce aortic LDL retention and may serve as new agents for the treatment of atherosclerosis. In a collaboration between National Heart, Lung, and Blood Institute and the NCGC a high-throughput amenable screen was developed to identify potent and selective small molecule inhibitors of S-ASM. This enzymatic, fluorescent screen uses an ASM enzyme preparation derived from human placenta and was tested against the NIH Molecular Libraries Small Molecule Repository (MLSMR). NIH Chemical Genomics Center [NCGC] NIH Molecular Libraries Probe Centers Network [MLPCN] MLPCN Grant: MH093173-01 Assay Submitter (PI): Alan Remaley, National Heart, Lung, and Blood Institute and Wei Zhen, NIH Chemical Genomics Center
Two microliters of ASM enzyme (1:150 dilution from stock) are dispensed in 1536-well plate. 23 nL of compound and control are pinned into assay plate using the Kalypsys pintool. The plates are then incubated for 10 minutes at ambient room temperature. Then, 2 uL of the flurogenic substrate, HMU-PC0, (9 uM final) are added to the plate. An incubation for 60 minutes takes place at 37 masculineC. After that, 4 uL of stop solution is added to raise the pH to 10 to end the kinetic reaction. Plate is read on ViewLux, with detection set at Ex = 386 (10) nm and Em = 447 (10) nm.
Potency means the concentration at half of the fitted maximal effect; tags describe the fitted curve by direction and shape.

| SMILES | Potency | activity change, negative = inhibition |
| --- | --- | --- |
| Cc1ccc(-c2nnc(-c3cccc(NC(=O)c4cccs4)c3)o2)cc1 | inconclusive: 316 µM [inhibitor, partial curve, poor fit] |  |
| Cc1cc(Nc2cccc(Cl)c2)nc(NCc2ccccc2)n1 | inconclusive: 70.8 µM [inhibitor, partial curve, poor fit] |  |
| CCn1nc(C)c(C(=O)Nc2cc(Oc3ccc(Cl)cc3)cc([N+](=O)[O-])c2)c1C | inconclusive: 89.1 µM [inhibitor, single point] |  |
| Cc1cc(C)n(-c2cc(C(C)(C)C)nc3c(-c4ccc(Cl)cc4)cnn23)n1 | inconclusive: 562 µM [inhibitor, partial curve, poor fit] |  |
| COC(=O)CSc1nc(C)cc(C)c1C#N |  | inactive: 106% |
| CCOC(=O)C1(C)/C(=N/Nc2ccc(S(N)(=O)=O)cc2)C(=O)C(=O)N1c1ccccc1 (centres undefined) | inconclusive: 63.1 µM [inhibitor, partial curve, poor fit] |  |
| COc1ccc(-c2c3c(=O)n(C)c(=O)n(C)c3cn2C2CCCCC2)cc1 | inconclusive: 89.1 µM [inhibitor, single point] |  |
| COc1ccc(-c2ccc3c(c2)c(-c2cccs2)c(-c2cc(OC)cc(OC)c2)n3C)cc1 |  | inactive: 124% |
| CS(=O)(=O)c1ccc(C(=O)Nc2cc(-c3ccccc3)nn2-c2ccccc2)cc1 | inconclusive: 282 µM [inhibitor, partial curve, poor fit] |  |
| FC(F)(F)c1ccc(CN2C[C@@H]3C(c4ccc(Cl)nc4)C4(c5cccnc5)CC3(C4)[C@H]2c2ccccc2)cc1 (some centres undefined) | inconclusive: 398 µM [inhibitor, partial curve, poor fit] |  |
| O=C1c2ccccc2C(=O)c2c([N+](=O)[O-])ccc(O)c21 |  | inactive: 1.08% |
| COC(=O)c1c(NC(=O)CSc2nnc(CNc3ccc(Cl)cc3)o2)sc(C)c1C | inconclusive: 316 µM [inhibitor, partial curve, poor fit] |  |
| COc1cc2ccccc2cc1C(=O)Nc1ccc(O)cc1 |  | inactive: 6.44% |
| Cc1ccc(NC(=S)NC(=O)C2CCCCC2)c(Br)c1 |  | inactive: -3.96% |
| C/C(=N\NC(=O)c1cccc(N/N=C(\C)c2cc(O)ccc2O)c1)c1cc(O)ccc1O | inconclusive: 63.1 µM [inhibitor, single point] |  |
| CC1=Nc2ccccc2/C1=C\c1sc(Nc2ccc(C)cc2)nc1O |  | inactive: -25.1% |
| O=C(COc1ccc(Cl)cc1Cl)Nc1ccc2nc3n(c(=O)c2c1)CCCC3 | inconclusive: 89.1 µM [inhibitor, partial curve, poor fit] |  |
| Cc1noc(C)c1CSc1ncnc2sc(C)c(C)c12 | inconclusive: 355 µM [inhibitor, partial curve, poor fit] |  |
| COc1ccc(C(=O)Nc2ccc(OCC(F)(F)C(F)F)c(C(F)(F)F)c2)cc1OC | inconclusive: 112 µM [inhibitor, partial curve, poor fit] |  |
| CCCC(=O)c1cc(F)c(N2CCN(CCC#N)CC2)cc1C |  | inactive: -2.18% |

| SMILES | Potency | activity change, negative = inhibition |
| --- | --- | --- |
| COc1ccc(CN(C)CC(O)COc2ccc(-c3ccccc3)cc2)cc1OC (centres undefined) |  | inactive: -1.55% |
| O=C(Nc1ccc(C(O)(C(F)(F)F)C(F)(F)F)cc1)c1ccc(Cl)c([N+](=O)[O-])c1 | inconclusive: 562 µM [inhibitor, partial curve, poor fit] |  |
| CN1C(=O)c2cccc(NCCCN3C(=O)c4ccccc4C3=O)c2C1=O |  | inactive: 18.5% |
| CCOC(=O)/C(=C/C=C1\Sc2cc(C)c(C)cc2N1CC)C(C)=O | inconclusive: 89.1 µM [inhibitor, single point] |  |
| COc1ccccc1NC(=O)CSc1nnc(C2CCCCC2)n1N | inconclusive: 35.5 µM [inhibitor, single point] |  |
| COC(=O)c1ccc(CSc2nnc(NC(=O)C3CC(=O)N(Cc4ccc(C)cc4)C3)s2)cc1 (centres undefined) | inconclusive: 70.8 µM [inhibitor, partial curve, poor fit] |  |
| COc1ccc(CSc2nc(N3CCOCC3)c3c(c2C#N)CC(C)(C)OC3)cc1 | inconclusive: 200 µM [inhibitor, partial curve, poor fit] |  |
| CCCCCCCCCCCCCCC[C@@H](O)[C@@H](N)CO | inconclusive: 89.1 µM [inhibitor, single point] |  |
| O=C(CN(C(=O)CNS(=O)(=O)c1ccc(F)cc1)c1ccccc1)NCc1ccco1 | inconclusive: 100 µM [inhibitor, partial curve, poor fit] |  |
| c1ccc2c(-c3ccc(OCCN4CCCCC4)cc3)c(-c3ccsc3)sc2c1 | inconclusive: 126 µM [inhibitor, partial curve, poor fit] |  |
| Cc1cccc(N2CCN(S(=O)(=O)c3ccc4c(c3)NC(=O)CS4)CC2)c1C | inconclusive: 251 µM [inhibitor, partial curve, poor fit] |  |
| CC(C)(C)c1ccc(Cn2nnc3c(=O)[nH]c(C4CCN(C(=O)Cc5cccs5)CC4)nc32)cc1 | inconclusive: 70.8 µM [inhibitor, partial curve, poor fit] |  |
| Cc1cc(C)c2cc(CN(CCO)C(=O)Nc3ccc(Cl)cc3)c(=O)[nH]c2c1 | inconclusive: 89.1 µM [inhibitor, partial curve] |  |
| Cc1nn(C(C)(C)C)c(C)c1/C=N/OC(=O)Nc1ccc(Cl)cc1 |  | inactive: -17.8% |
| Cc1ccc(/C=N/N2CCN(c3ccncc3S(=O)(=O)N3CCCCC3)CC2)cc1 | inconclusive: 79.4 µM [inhibitor, partial curve, poor fit] |  |
| COC(=O)c1cc2c(-c3ccccc3)c(C)c3ccccn3c-2c1C(=O)OC | inconclusive: 70.8 µM [inhibitor, single point] |  |
| C=CCn1c(CNC(=O)c2ccccc2F)nnc1SCc1nc2ccccc2c(=O)[nH]1 |  | inactive: 0.393% |
| CC(=O)c1ccc(N2CCC(c3cc(-c4ccc(Cl)cc4Cl)n[nH]3)CC2)c([N+](=O)[O-])c1 | inconclusive: 112 µM [inhibitor, partial curve, poor fit] |  |
| O=C(Nc1ccc(Cl)c(Cl)c1)Nc1ccccc1O | inconclusive: 112 µM [inhibitor, partial curve, poor fit] |  |
